Measured values from article PMC4336329 (PLoS ONE, 2015).
Hit rate of the full screen: of about 310,000 compounds, about 2,200 (0.71%) showed an effect of 50% or more. Effects have a minus sign here. The list shows a part of the results.

Molecular target: human ether-à-go-go-related gene (hERG) potassium channel (human, UniProt Q12809)
Assay: primary screen, population patch clamp on CHO cells stably expressing hERG

human ether-à-go-go-related gene (hERG) potassium channel, sequence (Q12809 whole entry, looked up): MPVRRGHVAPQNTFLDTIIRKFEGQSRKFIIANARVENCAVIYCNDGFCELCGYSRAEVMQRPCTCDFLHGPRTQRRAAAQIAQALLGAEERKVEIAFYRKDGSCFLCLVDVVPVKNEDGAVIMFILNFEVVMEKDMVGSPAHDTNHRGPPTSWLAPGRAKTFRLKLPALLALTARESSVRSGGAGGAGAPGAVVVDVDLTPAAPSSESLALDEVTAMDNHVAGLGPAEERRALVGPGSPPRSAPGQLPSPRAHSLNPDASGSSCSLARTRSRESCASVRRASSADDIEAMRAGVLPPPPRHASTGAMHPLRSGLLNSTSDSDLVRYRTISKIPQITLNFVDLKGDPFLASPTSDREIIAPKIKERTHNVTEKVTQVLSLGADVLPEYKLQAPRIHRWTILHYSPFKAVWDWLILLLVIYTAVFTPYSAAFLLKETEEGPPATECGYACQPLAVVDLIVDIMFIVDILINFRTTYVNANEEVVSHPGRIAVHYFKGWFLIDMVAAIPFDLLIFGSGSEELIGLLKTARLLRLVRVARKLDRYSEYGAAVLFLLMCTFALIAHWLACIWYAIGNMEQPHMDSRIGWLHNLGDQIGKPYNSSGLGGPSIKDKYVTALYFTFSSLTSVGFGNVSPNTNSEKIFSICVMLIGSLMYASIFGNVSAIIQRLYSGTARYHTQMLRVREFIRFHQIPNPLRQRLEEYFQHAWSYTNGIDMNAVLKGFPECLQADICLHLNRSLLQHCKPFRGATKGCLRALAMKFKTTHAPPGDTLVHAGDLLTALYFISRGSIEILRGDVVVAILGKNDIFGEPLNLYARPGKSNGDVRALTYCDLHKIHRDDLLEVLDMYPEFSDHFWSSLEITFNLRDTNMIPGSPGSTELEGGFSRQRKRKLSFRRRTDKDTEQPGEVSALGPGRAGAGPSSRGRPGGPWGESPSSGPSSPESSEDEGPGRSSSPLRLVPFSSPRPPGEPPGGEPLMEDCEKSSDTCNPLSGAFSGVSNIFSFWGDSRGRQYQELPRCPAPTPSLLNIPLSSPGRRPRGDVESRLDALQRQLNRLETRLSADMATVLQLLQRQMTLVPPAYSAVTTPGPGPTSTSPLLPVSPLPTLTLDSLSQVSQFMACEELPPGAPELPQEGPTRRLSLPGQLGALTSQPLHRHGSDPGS

| SMILES | hERG current change (%, negative = inhibition) at 1uM [%] |
| --- | --- |
| CCOC(=O)N1CCN(S(=O)(=O)c2cccc3cccnc23)CC1 | 5.5 |
| O=C(CCc1ccccc1F)N1CCN(c2ccccc2)CC1 | 18.3 |
| O=C(NCCOc1ccccc1)C1CCC(=O)N(CCc2ccccn2)C1 (centres unmarked) | 9.49 |
| Oc1ccc(-c2csc(-c3cccnc3)n2)cc1O | 12.7 |
| Cc1ccccc1CN1CCN(S(=O)(=O)c2ccc(Cl)s2)CC1 | 6.38 |
| Cn1c(SCC(=O)Nc2ccccc2F)nnc1-c1cccnc1 | -0.959 |
| OC(C#CCN1CCOCC1)(c1ccccc1)C1CCCCC1 (centres unmarked) | 10.3 |
| Cc1c(Cl)cccc1NC(=O)NCc1ccccn1 | 2.71 |
| COc1ccccc1-c1cc(C(=O)NCc2ccc(Cl)cc2)no1 | 6.11 |
| COc1cc([N+](=O)[O-])cc(/C=N/NC(=O)CSc2nnc(-c3ccccc3)n2C)c1O | 5.04 |
| COc1ccc(CNC(=O)COc2ccc(S(=O)(=O)N3CCOCC3)cc2C)cc1 | 1.02 |
| C/C(=N/NC(=O)CNC(=O)/C=C/c1ccco1)c1ccc(Cl)cc1 | 6.5 |
| CC1(C)C[C@@H]2C[C@@](C)(CN2C(=O)c2cc(COc3cccc(C(F)(F)F)c3)on2)C1 | 11.9 |
| CC(C)c1ccc(NC(=O)C2CCCN(S(=O)(=O)c3ccc4c(c3)C(C)(C)C(=O)N4C)C2)cc1 (centres unmarked) | 7.73 |
| COc1cc(OC)c(NC(C)C(=O)NCc2ccccc2)cc1Cl (centres unmarked) | 14.3 |
| CCN(CC(=O)Nc1c(F)cccc1F)C(=O)Cn1c(=O)cnc2ccccc21 | 11 |
| O=C(COc1ccccc1)OCC(=O)c1ccc(O)cc1O | 15.1 |
| CC1(C2CC2)NC(=O)N(CC(=O)N2CCN(S(=O)(=O)c3ccc(F)c(F)c3)CC2)C1=O (centres unmarked) | 3.97 |
| Cc1cc(C(F)(F)F)c(C#N)c(SCC(=O)NC(C)(C)C)n1 | 10.5 |

| SMILES | hERG current change (%, negative = inhibition) at 1uM [%] |
| --- | --- |
| Nc1ccc(C#Cc2ccc3c(=O)c4ccccc4oc3c2)cc1 | 15.7 |
| COc1ccc(N2CCN(Cc3cc(=O)oc4ccc5ccccc5c34)CC2)cc1 | 9.27 |
| Cc1ccc2c(C)c(C(=O)N3CCN(Cc4ccccn4)CC3)oc2c1C | 2.22 |
| CCN(CC)S(=O)(=O)c1ccc(OC)c(NC(=O)c2ccc3c(c2)OCO3)c1 | 10.6 |
| COc1cc2nc(COc3ccc(C#N)cc3)n(CC#N)c(=O)c2cc1OC | -1.23 |
| Cc1ccc(Nc2nc(Cl)nc(N(C)C#N)n2)cc1 | 8.56 |
| O=C(NC(Cc1ccccc1)C(=O)O)c1ccc(S(=O)(=O)N2CCCCC2)cc1 (centres unmarked) | 22 |
| COc1ccc(CCNC(=O)Cc2ccc(Cl)cc2)cc1OC | 16.9 |
| Cc1cccc(OCCCC(=O)NCC(=O)Nc2cccc(C)c2C)c1 | 12 |
| Cc1cc2ncn(C3CC(=O)N(C)C3=O)c2cc1C (centres unmarked) | 15.3 |
| CCCC(=O)Nc1ccc2oc(=O)ccc2c1 | 7.53 |
| CC(C)(CO)NCc1c(OCc2ccc(Cl)cc2)ccc2ccccc12.Cl | -34.1 |
| CCCN1CCN(C(=O)c2nn(-c3ccc(OC)cc3)c(=O)c3c2c2ccccc2n3C)CC1 | 6.28 |
| C/C(=N\N=C(/N)c1nonc1N)c1ccc2c(c1)OCO2 | 17.1 |
| COC(=O)C1=NNCC12CC(=O)N(c1ccc(Br)cc1)C2=O (centres unmarked) | 8.71 |
| O=C(NCc1cccnc1)c1cccc2c1C(=O)N(C1CCCCC1)C2 | -3.58 |
| COc1cccc(C(=O)NCCS(=O)(=O)NCCCc2ccccc2)c1 | -1.29 |
| Cl.N=c1sccn1CC(=O)Nc1cccc(S(N)(=O)=O)c1 | 13.4 |
| Cc1ccn2c(C(=O)N/N=C/c3ccc(CNC(=O)C(=O)Nc4ccc(C)c(C)c4)o3)c(C)nc2c1 | -3.81 |

| SMILES | hERG current change (%, negative = inhibition) at 1uM [%] |
| --- | --- |
| CC(C)C1C(=O)CC(c2ccccc2)NC1c1ccccc1 (centres unmarked) | 12.3 |
| Clc1ccc2nc(-c3ccc(Br)s3)cn2c1 | 7.35 |
| Cc1cc(C)cc(C(=O)NC(CC(N)=O)c2ccc(NC3CCCCC3)c([N+](=O)[O-])c2)c1 (centres unmarked) | 1.9 |
| CCC1(CC)C(=O)NC(=NCCc2c[nH]c3ccccc23)NC1=O | 13.6 |
| O=C(CCCNC(=O)/C(=C/c1ccc(Br)cc1)NC(=O)c1ccccc1)OCc1ccccc1 | -2.58 |
| COc1ccc(CCN(Cc2cc3cc(C)c(C)cc3nc2Cl)C(=O)C2CC2)cc1 | 17.8 |
| Cc1ccc(CSc2nsc(C)c2C#N)cc1 | 16.4 |
| Cn1c2ccccc2c2ncn(Cc3ccco3)c(=O)c21 | 14.4 |
| N#Cc1ccccc1S(=O)(=O)N1CCN(CC(=O)NC(=O)NC2CCCCC2)CC1 | 7.59 |
| O=C(NCCCCNC(=O)c1ccco1)c1ccco1 | 17.4 |
| CCOc1ccc(N2C(=O)CC(N(CCc3ccccc3)C(=O)/C=C/C(=O)O)C2=O)cc1 (centres unmarked) | 14.7 |
| CCCOC1CCCN(Cc2nc(-c3cnccn3)no2)C1 (centres unmarked) | 11.6 |
| O=C(Cn1ccn(-c2ccc(F)c(Cl)c2)c(=O)c1=O)NCCc1ccccc1 | 10.7 |
| COC(=O)N/N=C/c1c(C)nn(-c2cccc(Cl)c2)c1Cl | 3.99 |
| Cc1ccc(/C=C/C(=O)c2cc(Br)ccc2OC(=O)c2ccco2)cc1 | 10.1 |
| Cc1onc(-c2c(F)cccc2Cl)c1C(=O)Nc1nc2c(s1)CCCC2 | -4.32 |
| CN(C)C1(CNC(=O)c2cc(S(=O)(=O)N3CCOCC3)c(Cl)cc2Cl)CCCCC1 | 3.52 |
| CCc1ccc(N/C(N)=N/c2nc(CSc3ccccn3)cc(=O)[nH]2)cc1 | 4.02 |
